# Assay results as given in PubChem BioAssay (Tox21).
# Where “and” joins values, the source holds several entries; their conditions need not be identical. Identical values can stand only once. Inconclusive results, whose numbers are uncertain, are shown with a selection of clear calls. For some assays here: Potencies beside an inconclusive call are fits to weak or partial responses and may not hold up. Calls of active or inactive are those of the source. Unless noted, calls come from the whole dose curve; as a rule, active = well fitted curve in the direction sought with a large enough effect in the repeat runs; inconclusive = weak or mixed curves; inactive = no such curve, though single readings can be large; an effect the other way counts as inactive or inconclusive.
# Key:
# [1] = qHTS assay to identify small molecule antagonists of the peroxisome proliferator-activated receptor delta (PPARd) signaling pathway - cell viability counter screen (AID 743213); details: PPARd-bla HEK293H viability, CellTiter-Glo luminescence, 17 h; viability change, negative = cytotoxic: at 62 µM (top of the series) unless noted; note: nearly all actives have a fitted effect of over 50% in size; note: potency is the fitted concentration of half-maximal effect; for viability change, negative = cytotoxic: % is set by controls: 0 for no effect and ±100 for the full control effect
# Outline: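 HEK293H cells with the PPARd UAS-bla reporter, co-treated 17 h at 37 C with compounds and L165041 (300 nM final), were lysed with CellTiter-Glo. Luminescence indicated viable cell content.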
# [2] = qHTS assay to identify small molecule agonists of the RXR signaling pathway - cell viability counter screen (AID 1159529); note: nearly all actives have a fitted effect of over 50% in size; note: potency is the fitted concentration of half-maximal effect
# Outline: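 Steps: seed RXR-alpha-UAS-bla HEK 293T cells in assay medium containing 2% charcoal-stripped FBS; incubate 5 hr; add compounds in DMSO; incubate 16 hr at 37 C; after the bla read, add CellTiter-Glo and read luminescence at 30 min.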
# [3] = biological target: Thyrotropin receptor (Homo sapiens) (UniProt P16473); assay: qHTS assay to identify small molecule agonists of the thyroid stimulating hormone receptor (TSHR) signaling pathway (AID 1224843; calls by dose curve; note: % is set by controls: 0 for no effect and ±100 for the full control effect; nearly all actives have a fitted effect of over 45% in size); details: TSHR-HEK293 cells, cAMP HTRF, agonist mode, 30 min; activation: at 92.4 µM (top of the series) unless noted
# Outline: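 Screening of the Tox21 10K collection used HEK293 cells engineered with TSHR at 800 cells per well. After a 30-min room-temperature compound exposure, HTRF cAMP reagents were added and fluorescence recorded 1 h later.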
# [4] = qHTS assay for identifying genotoxic compounds that show differential cytotoxicity against isogenic chicken DT40 cell lines with known DNA damage response pathways - wild type cell line (AID 743012); details: DT40 wild type chicken cells viability, CellTiter-Glo, 40 h; activity change, negative = cytotoxicity: at 68.4 µM (top of the series) unless noted; note: potency is the fitted concentration of half-maximal effect; nearly all actives have a fitted effect of over 60% in size
# Outline: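 First, wild type DT40 cells were plated at 300 per well and equilibrated about 0.5 h at 37 C/5% CO2. Next, compounds in DMSO were added and exposure lasted 40 h. Finally, CellTiter-Glo was added for 30 min at room temperature and luminescence recorded.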
# [5] = biological target: Estrogen receptor (Homo sapiens) (UniProt P03372); assay: qHTS assay to identify small molecule agonists of the estrogen receptor alpha (ER-alpha) signaling pathway using the BG1 cell line (AID 743079); details: BG1Luc4E2 cells, ERE-luciferase agonist, 22 h; activation: at 70.3 µM (top of the series) unless noted; note: nearly all actives have a fitted effect of over 20% in size; note: potency is the fitted concentration of half-maximal effect; for activation: % is set by controls: 0 for no effect and ±100 for the full control effect
# [6] = qHTS assay to identify small molecule agonists of the vitamin D receptor (VDR) signaling pathway - cell viability counter screen (AID 743224); note: potency is the fitted concentration of half-maximal effect; nearly all actives have a fitted effect of over 50% in size
# Outline: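 Plated VDR-bla cells (4 h, 37C) received compound, incubated 16 h, then LiveBLAzer substrate 2 h RT; CellTiter-Glo added afterwards, luminescence read at 30 min.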
# [7] = qHTS assay to identify small molecule agonists of the retinoic acid receptor (RAR) signaling pathway (AID 1159553); details: C3RL4 RARE luciferase reporter, agonist, 6 h; activation: at 73.3 µM (top of the series) unless noted; note: potency is the fitted concentration of half-maximal effect
# Outline: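 Reporter readout comes from luciferase under RARE control in C3RL4 cells; compound exposure lasts 6 hr at 37 C in 5% CO2, and luminescence is recorded following a 30 min room-temperature incubation with reagent.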
# [8] = qHTS assay to identify small molecule antagonists of the estrogen related receptor (ERR) signaling pathway from Tox21 library - cell viability counter screen (AID 1224834); note: potency is the fitted concentration of half-maximal effect; nearly all actives have a fitted effect of over 30% in size
# Outline: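 After 17.5 h of compound exposure at 37 C, ERR cells are incubated with CellTiter-Fluor for 30 min and fluorescence intensity serves as the viability measure.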
# [9] = qHTS assay to identify small molecule agonists of H2AX - cell viability counter screen (AID 1224847; calls by dose curve; note: potency is the fitted concentration of half-maximal effect; nearly all actives have a fitted effect of over 30% in size)
# Outline: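 Cytotoxicity counter screen in wild-type CHO-K1 cells: a 3 hr compound treatment at 37C across 15 concentrations, followed by CellTiter-Glo luminescence to gauge viable cells.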
# [10] = qHTS RealTime-Glo MT Cell Viability Assay in HEK293 cells - 32 hour (AID 1224868); note: nearly all actives have a fitted effect of over 50% in size; note: potency is the fitted concentration of half-maximal effect
# Outline: (§1)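 Homogeneous bioluminescent viability format in HEK293 cells (600 cells/well). Following 5 h at 37 C/5% CO2, 23 nL compound was pintooled; the signal was measured repeatedly during 40 h incubation.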
# [11] = qHTS RealTime-Glo MT Cell Viability Assay in HEK293 cells - 16 hour (AID 1224872)
# Outline: as §1
# [12] = biological target: Nuclear receptor subfamily 1 group I member 2 (Homo sapiens) (UniProt O75469); assay: Human pregnane X receptor (PXR) small molecule agonists, qHTS assay (AID 1346982); note: nearly all actives have a fitted effect of over 35% in size; note: potency is the fitted concentration of half-maximal effect
# Outline: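 Compound-induced hPXR transactivation of a CYP3A4 luciferase reporter was scored in HepG2 PXR-Luc cells over 24 hr at 37 C, 5% CO2, by luminescence.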
# [13] = qHTS assay for small molecule agonists of the p53 signaling pathway (AID 651631; calls by dose curve; note: potency is the fitted concentration of half-maximal effect; nearly all actives have a fitted effect of over 15% in size); details: HCT-116 p53RE-bla reporter, beta-lactamase FRET ratio, 16 h; activation: at 73.3 µM (top of the series) unless noted
# Outline: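 Agonist mode screen using a stably integrated beta-lactamase gene under p53 response elements in HCT-116 cells. Compound exposure lasts 16 h at 37 °C; fluorescence intensity is measured following 2 h FRET substrate loading.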
# [14] = biological target: Peroxisome proliferator-activated receptor delta (Homo sapiens) (UniProt Q03181); assay: qHTS assay to identify small molecule antagonists of the peroxisome proliferator-activated receptor delta (PPARd) signaling pathway (AID 743215; active = well fitted inhibition curve with a large enough effect in the signal ratio in the repeat runs, not every such curve was filed as active; inconclusive = weak or mixed curves, or effect the other way; inactive = no such curve, though single readings can be large or run the other way; the % refers to the signal ratio;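 note: cells stimulated with agonist L165041 at 300 nM final during compound exposure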; note: potency is the fitted concentration of half-maximal effect); details: HEK293H PPARd-UAS-bla, beta-lactamase FRET ratio, antagonist, 17 h; ratio activity, negative = inhibition: at 62 µM (top of the series) unless noted
# Outline: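 HEK293H UAS-bla, PPARd; agonist L165041 300 nM final with cpd in DMSO; 37 C 17 h; FRET substrate, RT 2 h; fluorescence intensity.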
# [15] = qHTS assay to identify small molecule antagonists of the vitamin D receptor (VDR) signaling pathway - cell viability counter screen (AID 743225); details: VDR-bla HEK293T viability, CellTiter-Glo luminescence, 16 h; note: nearly all actives have a fitted effect of over 50% in size; note: potency is the fitted concentration of half-maximal effect; for viability change, negative = cytotoxic: % is set by controls: 0 for no effect and ±100 for the full control effect
# Outline: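 HEK293T VDR-bla; cpd + 1a,25-(OH)2D3 3 nM final, 16 h 37C/5% CO2; B/G FRET substrate 2 h RT; then CellTiter-Glo 30 min RT, luminescence.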
# [16] = qHTS RealTime-Glo MT Cell Viability Assay in HEK293 cells - 24 hour (AID 1224886); note: nearly all actives have a fitted effect of over 50% in size; note: potency is the fitted concentration of half-maximal effect; for activity change, negative = cytotoxicity: top concentration of the series differs between compounds; % is set by controls: 0 for no effect and ±100 for the full control effect
# Outline: as §1
# [17] = biological target: Estrogen receptor beta (Homo sapiens) (UniProt Q92731); assay: qHTS assay to identify small molecule agonists of the estrogen receptor beta (ER-beta) signaling pathway (AID 1259377; active = well fitted activation curve with a large enough effect in the signal ratio in the repeat runs, not every such curve was filed as active; inconclusive = weak or mixed curves, or effect the other way; the % refers to the signal ratio; note: potency is the fitted concentration of half-maximal effect); details: ER-beta-UAS-bla HEK293T, beta-lactamase FRET ratio, 16 h; activation: at 92.4 µM (top of the series) unless noted
# Outline: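 Agonist mode cell assay in GripTite HEK293T cells expressing an ER-beta fusion that drives beta-lactamase from an Upstream Activator Sequence; 16 hr compound exposure at 37C, then 2 h LiveBLAzer B/G FRET substrate at room temperature, fluorescence read-out.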
# [18] = qHTS assay to identify small molecule antagonists of the estrogen receptor alpha (ER-alpha) signaling pathway - cell viability counter screen (AID 743074; calls by dose curve;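 note: HEK293 cells carrying ER-alpha-UAS-bla reporter stimulated with 17beta-estradiol; nearly all actives have a fitted effect of over 45% in size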; note: potency is the fitted concentration of half-maximal effect)
# [19] = biological target: Cytochrome P450 2C19 (Homo sapiens) (UniProt P33261); assay: Cytochrome P450 Family 2 Subfamily C Member 19 (CYP2C19) small molecule antagonists: luciferase reporter qHTS assay (AID 1671197); note: potency is the fitted concentration of half-maximal effect; nearly all actives have a fitted effect of over 65% in size
# Outline: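 Relative luminescence units recorded 20 min after the detection reagent stopped a 1 h, 37C CYP2C19 reaction on proluciferin substrate, which was started by NADPH regeneration following 10 min room-temperature compound preincubation; ketoconazole positive control.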
# [20] = Caspase-3/7 induction in CHO-K1 cells by small molecules, qHTS cell viability counter screen (AID 1346979); note: potency is the fitted concentration of half-maximal effect; nearly all actives have a fitted effect of over 35% in size
# Outline: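 Cytotoxicity counter screen run in parallel with the caspase-3/7 assay: CHO-K1 cells, 16hr compound treatment at 37C, then CellTiter-Fluor for 1hr before fluorescence reading.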
# [21] = viability change, negative = cytotoxic: at 61 µM (top of the series) unless noted
# Tags give direction and shape of the fitted curve or compound fluorescence and quenching.
# Chain of UniProt O75469 (O75469 whole entry, looked up): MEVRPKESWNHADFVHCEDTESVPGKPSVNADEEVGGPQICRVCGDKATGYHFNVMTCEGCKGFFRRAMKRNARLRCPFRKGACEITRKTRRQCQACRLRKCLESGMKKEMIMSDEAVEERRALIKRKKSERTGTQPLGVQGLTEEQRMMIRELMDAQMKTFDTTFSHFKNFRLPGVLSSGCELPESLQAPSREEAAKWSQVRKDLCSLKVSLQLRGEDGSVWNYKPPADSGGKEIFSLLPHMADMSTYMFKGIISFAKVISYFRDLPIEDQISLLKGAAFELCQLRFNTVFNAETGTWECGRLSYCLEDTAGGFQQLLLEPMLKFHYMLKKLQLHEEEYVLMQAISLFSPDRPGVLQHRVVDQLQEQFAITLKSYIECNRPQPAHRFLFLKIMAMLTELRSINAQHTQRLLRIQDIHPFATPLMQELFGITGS
# Chain of UniProt P03372 (P03372 whole entry, looked up): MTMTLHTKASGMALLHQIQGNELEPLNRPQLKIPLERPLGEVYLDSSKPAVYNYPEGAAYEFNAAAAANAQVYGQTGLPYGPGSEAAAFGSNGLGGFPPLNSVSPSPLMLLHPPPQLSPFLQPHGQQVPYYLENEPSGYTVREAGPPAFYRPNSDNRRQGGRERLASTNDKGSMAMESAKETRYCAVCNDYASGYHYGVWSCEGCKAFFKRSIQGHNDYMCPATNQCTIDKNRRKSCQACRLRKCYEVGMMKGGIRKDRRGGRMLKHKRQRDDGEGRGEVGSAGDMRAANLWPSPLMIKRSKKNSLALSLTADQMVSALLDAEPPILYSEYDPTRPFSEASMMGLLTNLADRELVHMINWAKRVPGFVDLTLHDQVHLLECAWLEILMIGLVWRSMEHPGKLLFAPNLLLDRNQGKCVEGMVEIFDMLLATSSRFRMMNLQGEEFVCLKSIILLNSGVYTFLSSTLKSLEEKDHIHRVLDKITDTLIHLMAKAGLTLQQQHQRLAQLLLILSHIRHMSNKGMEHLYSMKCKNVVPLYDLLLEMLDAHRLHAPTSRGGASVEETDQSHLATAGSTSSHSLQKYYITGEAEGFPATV
# Chain of UniProt P16473 (P16473 whole entry, looked up): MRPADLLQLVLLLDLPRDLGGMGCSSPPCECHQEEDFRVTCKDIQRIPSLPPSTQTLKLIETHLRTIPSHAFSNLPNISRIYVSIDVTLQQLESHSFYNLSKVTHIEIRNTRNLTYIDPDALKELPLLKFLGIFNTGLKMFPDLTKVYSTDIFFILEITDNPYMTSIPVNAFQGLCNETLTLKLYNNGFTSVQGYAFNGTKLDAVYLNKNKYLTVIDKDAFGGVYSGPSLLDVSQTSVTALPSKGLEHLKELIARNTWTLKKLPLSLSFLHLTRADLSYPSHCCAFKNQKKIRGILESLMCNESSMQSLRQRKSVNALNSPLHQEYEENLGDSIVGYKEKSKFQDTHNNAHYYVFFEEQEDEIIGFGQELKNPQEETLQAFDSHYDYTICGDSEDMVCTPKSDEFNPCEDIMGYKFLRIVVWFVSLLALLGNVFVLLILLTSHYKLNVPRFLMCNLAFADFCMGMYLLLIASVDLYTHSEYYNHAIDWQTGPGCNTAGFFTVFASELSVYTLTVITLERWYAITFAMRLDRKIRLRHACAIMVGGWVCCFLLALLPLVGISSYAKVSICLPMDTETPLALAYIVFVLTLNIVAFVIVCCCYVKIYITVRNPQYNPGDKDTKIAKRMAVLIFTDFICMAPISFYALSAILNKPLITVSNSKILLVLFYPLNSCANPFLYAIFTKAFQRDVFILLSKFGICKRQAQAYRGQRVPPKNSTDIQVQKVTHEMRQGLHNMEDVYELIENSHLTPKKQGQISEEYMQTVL
# Chain of UniProt Q03181 (Q03181 whole entry, looked up): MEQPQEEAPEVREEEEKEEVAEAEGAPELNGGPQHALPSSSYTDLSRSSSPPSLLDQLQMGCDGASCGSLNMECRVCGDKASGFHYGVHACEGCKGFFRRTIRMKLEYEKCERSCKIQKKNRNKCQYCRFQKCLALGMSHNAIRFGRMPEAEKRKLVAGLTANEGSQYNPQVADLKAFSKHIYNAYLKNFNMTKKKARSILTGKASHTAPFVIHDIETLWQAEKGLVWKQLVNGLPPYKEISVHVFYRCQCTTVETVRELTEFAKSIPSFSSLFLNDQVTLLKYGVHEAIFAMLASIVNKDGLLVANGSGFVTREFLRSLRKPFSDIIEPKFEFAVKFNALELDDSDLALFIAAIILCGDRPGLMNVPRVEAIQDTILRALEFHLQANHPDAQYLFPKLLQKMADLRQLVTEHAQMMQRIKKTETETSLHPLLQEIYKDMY
# Chain of UniProt P33261 (P33261 whole entry, looked up): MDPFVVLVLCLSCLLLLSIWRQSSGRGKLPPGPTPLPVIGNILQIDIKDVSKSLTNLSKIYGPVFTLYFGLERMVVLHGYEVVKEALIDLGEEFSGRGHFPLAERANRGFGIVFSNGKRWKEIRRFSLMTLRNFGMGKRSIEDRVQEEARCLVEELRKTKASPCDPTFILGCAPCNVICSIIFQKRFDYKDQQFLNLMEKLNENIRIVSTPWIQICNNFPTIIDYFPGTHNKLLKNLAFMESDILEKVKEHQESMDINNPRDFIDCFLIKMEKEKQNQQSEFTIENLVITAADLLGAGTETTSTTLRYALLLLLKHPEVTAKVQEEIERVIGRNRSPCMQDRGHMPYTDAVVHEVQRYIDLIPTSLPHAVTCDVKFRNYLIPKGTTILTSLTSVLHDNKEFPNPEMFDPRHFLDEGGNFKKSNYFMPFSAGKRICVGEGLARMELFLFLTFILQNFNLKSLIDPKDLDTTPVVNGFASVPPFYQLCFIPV
# Chain of UniProt Q92731 (Q92731 whole entry, looked up, the tested form may be a part): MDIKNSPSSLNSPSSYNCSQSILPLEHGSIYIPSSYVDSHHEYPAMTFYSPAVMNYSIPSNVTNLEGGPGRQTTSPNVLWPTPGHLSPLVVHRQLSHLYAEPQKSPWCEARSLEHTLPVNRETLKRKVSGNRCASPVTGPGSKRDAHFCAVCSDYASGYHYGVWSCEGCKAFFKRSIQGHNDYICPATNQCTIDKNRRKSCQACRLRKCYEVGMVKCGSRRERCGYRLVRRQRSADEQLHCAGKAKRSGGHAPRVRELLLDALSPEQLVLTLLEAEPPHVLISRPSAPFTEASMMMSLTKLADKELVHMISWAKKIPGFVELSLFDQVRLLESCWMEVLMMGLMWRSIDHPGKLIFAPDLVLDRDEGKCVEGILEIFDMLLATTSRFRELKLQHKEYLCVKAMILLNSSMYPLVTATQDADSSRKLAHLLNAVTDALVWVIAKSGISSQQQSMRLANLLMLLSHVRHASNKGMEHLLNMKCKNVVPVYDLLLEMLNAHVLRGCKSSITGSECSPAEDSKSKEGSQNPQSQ
structure (smiles),measurement,setting,value
CC(C)(C)c1ccc(CCOc2ncnc3ccccc23)cc1,Potency,[1],inactive
same,Potency,[2],"inconclusive: 15.5 µM [rising, partial curve, poor fit]"
same,Potency,[3],inactive
c1ccc(Nc2ccc(Nc3ccccc3)cc2)cc1,Potency,[4],"inconclusive: 27.2 µM [cytotoxic, single point]"
same,Potency,[5],active: 6.09 µM
same,Potency,[6],"inconclusive: 43.5 µM [cytotoxic, partial curve]"
same,Potency,[2],"inconclusive: 61.4 µM [cytotoxic, single point]"
same,Potency,[7],active: 5.43 µM
same,Potency,[8],inconclusive: 27.2 µM [cytotoxic]
same,activation,[3],inconclusive: 26.4%
same,Potency,[9],"inconclusive: 89.4 µM [cytotoxic, partial curve]"
same,Potency,[10],active: 21.8 µM
same,Potency,[11],active: 19.4 µM
same,Potency,[12],active: 24.2 µM
CC1=C(C(=O)Nc2ccccc2)S(=O)(=O)CCO1,Potency,[13],active: 19.3 µM
same,Potency,[5],"inconclusive: 68.5 µM [inhibitor, single point]"
same,Potency,[1],"inconclusive: 61.6 µM [cytotoxic, single point]"
same,Potency,[14],"inconclusive: 30.9 µM [rising, partial curve]"
same,Potency,[6],"inconclusive: 61.6 µM [cytotoxic, single point]"
same,Potency,[15]; [21],"inconclusive: 61.6 µM [cytotoxic, single point]"
same,Potency,[8],active: 61.1 µM
same,Potency,[10],active: 48.9 µM
same,Potency,[11],"inconclusive: 54.9 µM [cytotoxic, single point]"
same,Potency,[16],"inconclusive: 54.9 µM [cytotoxic, single point]"
same,Potency,[17],"inconclusive: 68.5 µM [rising, single point]"
O=P(Cl)(Cl)Cl,Potency,[18],inactive
same,Potency,[1],"inconclusive: 0.828 µM [cytotoxic, full curve, poor fit]"
same,Potency,[19],"inconclusive: 95.3 µM [inhibitor, single point]"
CCN(CC)c1ccccc1,Potency,[18],inactive
same,activation,[5],inconclusive: 2.81% [phenotype inactive]
same,Potency,[1],"inconclusive: 11.1 µM [cytotoxic, partial curve, poor fit]"
same,"viability change, negative = cytotoxic",[15]; at 78.8 µM (top of the series),inactive: 23.6%
same,"viability change, negative = cytotoxic",[15]; [21],inconclusive: -19.7% [cytotoxic]
same,Potency,[2],"inconclusive: 61.6 µM [rising, partial curve, poor fit]"
OCC(Cl)CCl (stereo not drawn),Potency,[10],inactive
same,Potency,[16],inactive
[O]=[Cd],Potency,[4],"inconclusive: 1.36 µM [rising, single point]"
same,Potency,[1],"inconclusive: 1.72 µM [cytotoxic, full curve, poor fit]"
same,Potency,[3],inactive
CC(C)C(C)(N)C#N (stereo not drawn),Potency,[18],"inconclusive: 21.9 µM [rising, single point]"
same,"ratio activity, negative = inhibition",[14],inconclusive: -11.1%
same,Potency,[2],inactive
same,Potency,[12],inactive
COP(=S)(OC)Oc1ccc(SC)c(C)c1,Potency,[4],"inconclusive: 33.5 µM [cytotoxic, single point] and inconclusive: 67.8 µM"
same,activation,[5],inconclusive: 13.8% [phenotype inactive]
same,"ratio activity, negative = inhibition",[14],inconclusive: -48.4%
same,Potency,[6],"inconclusive: 54.9 µM [cytotoxic, single point]"
same,Potency,[15]; [21],"inconclusive: 1.93 µM [cytotoxic, full curve, poor fit] and inconclusive: 43.6 µM [cytotoxic, partial curve, poor fit]"
same,Potency,[7],"inconclusive: 27 µM [activator, partial curve, poor fit] and active: 19.3 µM and inconclusive: 23.7 µM [activator, partial curve]"
same,Potency,[9],"inconclusive: 125 µM [cytotoxic, single point]"
same,Potency,[20],inconclusive: 76.1 µM [cytotoxic]
same,Potency,[12],"active: 60.4 µM and inconclusive: 68.6 µM [activator, single point] and active: 37.6 µM"
CCc1cc(C)cc(CC)c1-c1c(OC(=O)C(C)(C)C)n2n(c1=O)CCOCC2,Potency,[2],inactive
same,Potency,[8],"inconclusive: 30.6 µM [cytotoxic, partial curve]"
same,Potency,[16],inactive
same,Potency,[19],"inconclusive: 89.4 µM [inhibitor, single point]"
COc1cccc2c1cc([N+](=O)[O-])c1c(C(=O)O)cc3c(c12)OCO3,Potency,[13],active: 2.43 µM
same,Potency,[18],"inconclusive: 1.55 µM [rising, partial curve, poor fit]"
same,Potency,[5],"inconclusive: 7.7 µM [inhibitor, full curve]"
same,Potency,[1],"inconclusive: 0.0219 µM [cytotoxic, full curve, poor fit]"
same,Potency,[14],"inconclusive: 13.8 µM [rising, partial curve]"
same,Potency,[15]; [21],"inconclusive: 43.6 µM [cytotoxic, partial curve]"
same,Potency,[2],active: 17.4 µM
same,Potency,[8],active: 30.6 µM
same,Potency,[10],active: 2.45 µM
same,Potency,[16],active: 3.09 µM
same,Potency,[20],active: 21.7 µM
same,Potency,[12],"inconclusive: 2.73 µM [activator, partial curve]"
